# Measurements: PubChem BioAssay AID886 (National Center for Advancing Translational Sciences (NCATS), 2007)
# Screen size: about 73,000 compounds; about 2,500 (3.4%) were called active. Inconclusive means that the source gave no clear call. Such entries were picked first, then a sample of the others. The call rests on the fitted dose curve; in most records, active means well fitted inhibition curve with a large enough effect; inconclusive means small, poorly fitted or top-dose-only effect; inactive means no such curve, though single readings can be large or run the other way. Potencies beside an inconclusive call are fits to weak or partial responses and may not hold up. Some compounds were tested as several samples or in several runs, with calls that do not always agree.
# Target: 3-hydroxyacyl-CoA dehydrogenase type-2 (Homo sapiens) (UniProt Q99714)
# Chain of UniProt Q99714 (Q99714 whole entry, looked up): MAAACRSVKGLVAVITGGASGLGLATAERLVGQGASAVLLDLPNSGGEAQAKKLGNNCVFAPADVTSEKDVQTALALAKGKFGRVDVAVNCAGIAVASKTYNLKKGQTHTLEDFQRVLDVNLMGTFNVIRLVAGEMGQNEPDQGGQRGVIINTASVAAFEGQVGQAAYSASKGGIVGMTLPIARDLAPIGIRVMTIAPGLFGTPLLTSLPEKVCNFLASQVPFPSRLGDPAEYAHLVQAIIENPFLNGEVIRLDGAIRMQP
# Chain of UniProt Q99714 (Q99714 whole entry, looked up): as above
# Experiment: qHTS Assay for Inhibitors of HADH2 (Hydroxyacyl-Coenzyme A Dehydrogenase, Type II); further: nearly all actives have a fitted effect of over 60% in size
# Conditions: recombinant HADH2, NADH fluorescence, beta-hydroxybutyryl-CoA; activity change, negative = inhibition: at 57.1 µM (top of the series)
# Text: Assay Overview: NIH Molecular Libraries Screening Centers Network [MLSCN] NIH Chemical Genomics Center [NCGC] Structural Genomics Consortium [SGC] Grant Number: None HADH2: Hydroxyacyl-Coenzyme A dehydrogenase, type II, was supplied by researchers at the Structural Genomics Consortium, Oxford University lab (PI Udo Oppermann). The mitochondrial enzyme 17-hydroxysteroid dehydrogenase type 10 (HSD17-10) previously classified as type II hydroxyacyl-CoA dehydrogenase (HADH2) catalyzes the NAD+ dependent oxidation of a variety of substrates including acyl-CoAs, androgens and neurosteroids as well as bile acids(Shafqat N, Marschall HU, Filling C, et al. Biochemical Journal. 2003;376(Pt 1):49-60). The role in neurodegeneration by binding to amyloid-peptide led to its identification (Oppermann UC, et al FEBS Letters. 1999;451(3):238-242 and Yan SD, et al. Nature. 1997;389(6652):689-695), and mutations in its gene appear to be causative for 2-methyl-3-hydroxybutyryl-CoA dehydrogenase deficiency (Ofman R, et al. American Journal of Human Genetics. 2003;72(5):1300-1307). The enzyme was produced by E.coli fermentation as His-tagged recombinant for the purpose of X-ray structure determination, and had been mass-spectrometry characterized. Inhibition of HADH2 activity was screened by utilizing beta-hydroxybutyryl coenzyme A as an electron donor and NAD+ as an electron acceptor/cofactor. An increase in the fluorescence intensity due to conversion of NAD+ to NADH was used to measure the enzyme activity.
# Assay Protocol: Buffer: 100 mM Tris-HCl pH 9.0, containing 0.01 % Tween-20. Reagents/Controls: Buffer in columns 3 and 4 as negative control (no enzyme). Substrate/cofactor solution: 1 mM NAD+ and 90 uM beta-hydroxybutyryl coenzyme A (Sigma-Aldrich, St. Louis, MO) final concentrations dispensed throughout the plate. Enzyme: 20 nM HADH2 final concentration in columns 1, 2, 5-48. Column 1 is neutral (100% activity). Column 2 contained titration of apomorphine (Sigma-Aldrich, A 4393, PubChem CID 2215, top concentration 500 uM, then 1:2 dilution in duplicate) Assay Steps: Three uL of enzyme were dispensed to 1536-well Greiner black solid bottom plates. Compounds and controls (23 nL) were transferred via Kalypsys PinTool. The plates were incubated for 15 min at room temperature, and then 1 uL of substrate/cofactor solution was added to start the reaction. The plates were immediately transferred to and read every 30 seconds for 4 min on ViewLux High-throughput CCD imager (Perkin-Elmer) using 360 nm excitation and 450 nm emission fluorescence protocol. The fluorescence intensity difference between the last and the first time points was used to compute reaction progress.
# On the % scale 0 is the no-effect control and ±100 the full control effect; potency means the concentration at half of the fitted maximal effect; tags describe the fitted curve by direction and shape.
SMILES,Potency,"activity change, negative = inhibition"
Cc1cc(C(F)F)n2nc(C(=O)Nc3ccc(S(=O)(=O)N4CCCCCC4)cc3)nc2n1,"inconclusive: 31.6 µM [inhibitor, single point]",
O=C(CS(=O)(=O)c1c[nH]c2ccccc12)Nc1ccc2c(c1)OCCO2,"inconclusive: 31.6 µM [inhibitor, single point]",
CCOC(=O)c1c(N)sc2c1CCC(C)C2 (centres undefined),active: 3.16 µM,
Cc1cc(C)c2c(N)c(S(=O)(=O)Cc3ccccc3)sc2n1,,inactive: -1.54%
CC(C)CC(=O)Nc1ccc2oc(-c3cccnc3)nc2c1,active: 3.98 µM,
Cc1ccccc1-c1cc(Nc2ccc(F)cc2)ncn1,,inactive: 3.86%
CCC1CCc2c(sc(NC(=O)c3ccoc3C)c2C(N)=O)C1 (centres undefined),active: 31.6 µM,
Cc1csc2nc(CSc3ccc(Cl)cc3)cn12,active: 10 µM,
CC/C(=C(/CC)c1ccc(O)cc1)c1ccc(O)cc1,"inconclusive: 20 µM [inhibitor, partial curve]",
Cc1ccc(C)n1C(Cc1ccccc1)C(=O)O (centres undefined),"inconclusive: 31.6 µM [inhibitor, single point]",
COc1ccc(OC)c(C(=O)CSc2nnc(-c3cccs3)n2C)c1,"inconclusive: 31.6 µM [inhibitor, single point]",
CN(Cc1ccco1)c1ncnc2ccc(-c3ccccc3C#N)cc12,"inconclusive: 39.8 µM [inhibitor, single point]",
C=C(C)COc1ccc(-c2[nH]ncc2Oc2ccccc2OCC)c(O)c1,"inconclusive: 0.0398 µM [inhibitor, full curve, poor fit]",
COC(=O)c1cccc(NC(=O)CSc2nnc(C)n2Cc2ccccc2)c1,,inactive: 13.3%
CCOc1cc(C2C(C#N)=C(N)OC(C)=C2C(C)=O)cc(Br)c1O (centres undefined),"inconclusive: 31.6 µM [inhibitor, single point]",
CC1=CC2=C(OC1N(C)C)c1cccc3cccc(c13)C2=O (centres undefined),active: 3.98 µM,
CCOC(=O)c1c(NC(=O)CSc2nnc(CNc3ccc(F)cc3)o2)sc(C(C)=O)c1C,"inconclusive: 39.8 µM [inhibitor, single point]",
O=C(Nc1ccc(F)cc1F)N1CCN(c2ncccn2)CC1,,inactive: 3.23%
C=CCn1c(-c2cccs2)nc2nc3ccccc3nc21,"inconclusive: 5.01 µM [inhibitor, single point]",
CN1/C(=C\C(=O)C(F)F)C(C)(C)c2ccccc21,"inconclusive: 31.6 µM [inhibitor, single point]",
Cc1ccc(S(=O)(=O)N(C)CCCC(=O)NCc2ccc3c(c2)OCO3)cc1,"inconclusive: 25.1 µM [inhibitor, partial curve]",
COc1ccc(C2Nc3ccccc3C(=O)N2Cc2ccco2)cc1COc1ccc(NC(C)=O)cc1 (centres undefined),"inconclusive: 31.6 µM [inhibitor, single point]",
COCCn1c(=O)c(-c2ccc(F)cc2)nc2cnc(OC)nc21,active: 31.6 µM,
CCOc1ccc(-c2cc(C(=O)N3CCN(c4ccccn4)CC3)c3ccccc3n2)cc1,"inconclusive: 39.8 µM [inhibitor, single point]",
CCOC(=O)COc1ccc2c3c(c(=O)oc2c1C)CCC3,"inconclusive: 31.6 µM [inhibitor, single point]",

SMILES,Potency,"activity change, negative = inhibition"
CCC(CC)C(=O)Nc1ccccc1NC(C)=O,,inactive: 4.06%
O=C(Nc1cc(C(F)(F)F)ccc1N1CCOCC1)C1Cc2ccccc2CN1C(=O)c1ccco1 (centres undefined),,inactive: -4.14%
Cc1[nH]c(=S)n(CC2CCCO2)c1C (centres undefined),"inconclusive: 39.8 µM [inhibitor, partial curve, poor fit]",
NC(=O)C1CCN(c2ncnc3c(-c4ccccc4)nsc23)CC1,,inactive: -17.6%
Cc1cc(C)n2nc(-c3cccnc3)nc2n1,,inactive: 0.376%
CC(C)CO/N=C1/C[C@@H](O)[C@@H](O)[C@@H]2[C@@H]3C(=O)N([C@@H](C)c4ccccc4)C(=O)[C@H]3CC[C@H]12,,inactive: -1.56% [at 11.4 µM]
CCOC(=O)c1cnc(-n2nc(C)cc2C)nc1NC,"inconclusive: 39.8 µM [inhibitor, single point]",
Cc1cc(C)n2nc(NCc3cccc(Br)c3)nc2n1,"inconclusive: 31.6 µM [inhibitor, single point]",
Cc1sc2ncnc(-n3cnc4ccccc43)c2c1C,,inactive: -4.03%
CS(=O)(=O)Nc1cccc(-c2cncnc2NCc2cccs2)c1,"inconclusive: 31.6 µM [inhibitor, single point]",
COc1ccc(Cn2c3nc4ccccc4nc3c3c(=O)n(Cc4ccco4)cnc32)cc1,"inconclusive: 3.16 µM [inhibitor, full curve]",
CC(C)c1ccc2c(c1)c(SC(C)(C)C)c(CC(C)(C)C(=O)O)n2Cc1ccc(Cl)cc1,"inconclusive: 39.8 µM [inhibitor, single point]",
O=C1C=CC(=O)C2=C1C1c3ccccc3C2c2ccccc21,active: 0.1 µM,
CCOC(=O)C1CCCN(c2ncnc3c2[nH]c2cccc(OC)c23)C1 (centres undefined),active: 31.6 µM,
C[C@@H](CCc1ccccc1)NC[C@H](O)c1ccc(O)c(C(N)=O)c1,active: 25.1 µM,
Cn1c(=O)[nH]c(=O)c2c1nc(Br)n2CCCCSc1nc2ccccc2o1,"inconclusive: 39.8 µM [inhibitor, single point]",
CCCCn1c(NC(=O)c2ccccc2Cl)c(C#N)c2nc3ccccc3nc21,"inconclusive: 39.8 µM [inhibitor, single point]",
COc1cc(OC)c(NC(=O)c2c(-c3ccccc3)noc2C)cc1Cl,"inconclusive: 31.6 µM [inhibitor, single point]",
Cc1c(C(=O)NCc2ccoc2)oc2ccc3c(c12)C(=O)CC(C)(C)O3,"inconclusive: 12.6 µM [inhibitor, partial curve]",
Cc1nc(C)c(C(=O)Nc2ccc(C)c(F)c2)o1,"inconclusive: 25.1 µM [inhibitor, single point]",
O=C(O)c1ccc(Cn2cc(Cl)cn2)cc1,"inconclusive: 5.01 µM [inhibitor, single point]",
Clc1ccc(-c2ccc(-c3nn4c(-c5ccco5)nnc4s3)o2)cc1,"inconclusive: 31.6 µM [inhibitor, single point]",
N[C@H](C(=O)N[C@@H]1C(=O)N2C(C(=O)O)=C(Cl)CS[C@@H]12)c1ccccc1,active: 3.16 µM,
Cc1cccc(-n2nc3c(c2NC(=O)c2ccco2)CSC3)c1C,"inconclusive: 39.8 µM [inhibitor, single point]",
N#Cc1ccc(CSc2nc(-c3cccs3)c3c(c2C(=O)O)CCCC3)cc1,"inconclusive: 12.6 µM [inhibitor, partial curve]",

SMILES,Potency,"activity change, negative = inhibition"
CCCc1cc(=O)[nH]c(SCC(=O)NC2CCCCC2)n1,,inactive: 4.95%
O=C(CSc1ccc2nnc(-c3cccnc3)n2n1)N1CCOCC1,"inconclusive: 39.8 µM [inhibitor, single point]",
CCN(CC)S(=O)(=O)c1ccc(NCc2ccccc2)nc1,,inactive: -5.29%
CC(=C1C(=O)c2ccccc2C1=O)N1CCc2ccccc2C1,"inconclusive: 20 µM [inhibitor, partial curve]",
Cc1nnc(Sc2nc(Sc3nnc(C)s3)nc(N3CCN(C)CC3)n2)s1,"inconclusive: 31.6 µM [inhibitor, single point]",
CCCn1c(SC2C(=O)CC(C)(C)CC2=O)nc2c1c(=O)n(C)c(=O)n2C,"inconclusive: 31.6 µM [inhibitor, single point]",
Cc1cccc(-c2cc3nc4c(c(N5CCC6(CC5)OCCO6)n3n2)CCCC4)c1,"inconclusive: 39.8 µM [inhibitor, single point]",
Cc1occc1-c1nnc(SCC(=O)NCc2ccco2)n1CC(C)C,,inactive: -4.41%
CNC(=O)c1cc(S(=O)(=O)N(C)C)ccc1Cl,,inactive: 2.22%
O=C(Nc1ccccc1)Nc1nncs1,,inactive: 21.8%
Fc1ccc(-c2nnc3ccc(N4CCc5ccccc5C4)nn23)cc1,"inconclusive: 39.8 µM [inhibitor, single point]",
Cc1cc2oc(=O)cc(CN3CCN(Cc4ccccc4)CC3)c2cc1Cl,,inactive: 10.4%
Cc1c(NC(=O)OCCNC(=O)Nc2ccccc2)sc(=S)n1C,"inconclusive: 31.6 µM [inhibitor, single point]",
c1cnc(N2CCN(c3nc4ccccc4n4cnnc34)CC2)nc1,"inconclusive: 31.6 µM [inhibitor, single point]",
O=C(c1ccccc1C(F)(F)F)N1CCN(S(=O)(=O)c2ccccc2)CC1,,inactive: -1.72%
C=CCOc1cccc(C2/C(=C(/O)c3ccccc3)C(=O)C(=O)N2CCCN2CCOCC2)c1 (centres undefined),,inactive: 7.93%
COc1cc(-c2nnc(SCC(=O)N3CCCC3)o2)cc(OC)c1OC,"inconclusive: 31.6 µM [inhibitor, single point]",
O=C(NC(=O)c1ccccc1)NC1(C(F)(F)F)OCCO1,"inconclusive: 7.94 µM [inhibitor, single point]",
Cc1cc(C)n2c(SC/C(O)=C(\C#N)c3nc4ccccc4[nH]3)nnc2n1,"inconclusive: 25.1 µM [inhibitor, single point]",
Cc1cnc(CNc2ncncc2-c2ccccc2Cl)cn1,,inactive: -29.7%
Cc1cc(-n2c(C)cc(C(=O)CSc3ccc4c(c3)OCCO4)c2C)no1,"inconclusive: 3.16 µM [inhibitor, full curve]",
Cc1oc2cc(OCC(=O)O)ccc2c(=O)c1Oc1ccccc1,,inactive: -21.5%
Cc1cc(=O)oc2cc(O)c(CN(C)CC(=O)O)cc12,active: 3.16 µM,
Cn1nnc2cc(NC(=O)NCc3ccc4c(c3)OCO4)ccc21,"inconclusive: 20 µM [inhibitor, single point]",
